System: murine bone marrow-derived macrophages (BMDMs)
Experiment: Transcriptional profiling of BMDMs (Nanostring)
Details: 1 mM ddhC, RNA at 8 and 24 hours

SMILES: Nc1ccn([C@@H]2OC(CO)=C[C@H]2O)c(=O)n1 [ddhC]
- expression profile of BMDMs: adopt expression profiles typically associated with anti-inflammatory phenotypes

Reference: patent US20230138178A1, “Methods and Compositions for Producing a Heterologous Antiviral Compound in a Host Cell” (priority 2019, published 2023)
